# Results reported in paper PMC12136788.
# Positions count from the first letter of the chain named. The list shows a part of the results.
# T1: UNK ZnF1-3 (human, UniProt Q9C0B0 31-174)
# T1 sequence: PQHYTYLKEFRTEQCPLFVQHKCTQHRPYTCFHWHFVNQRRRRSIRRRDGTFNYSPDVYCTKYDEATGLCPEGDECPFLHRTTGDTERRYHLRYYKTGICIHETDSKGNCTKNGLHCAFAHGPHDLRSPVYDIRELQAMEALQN
# B1: chr16:57473197:57473198:-_ENSG00000005194_ENST00000569370|hu_hu|FALSE|FALSE (ssRNA)
# RNA: GGGAGUUCUACAGUCCGACGAUCGAUCCGGGCGAUUUCAGCCAAAAUCUCAGCACUGUGCAGAGUGGUGCUUCCUGGGACUAAACCUGACAAAAUAAUGUCAAAGCUGGAUUCUUUGUGGGCAGAUUGCAACAGCUGCUUGAUCAACAGAGGAUUGAGCAUCA
# B2: chr7:140710375:140710376:-_ENSG00000090263_ENST00000324787|hu_mus|motif|central (ssRNA)
# RNA: GGGAGUUCUACAGUCCGACGAUCGUUGUGAUUUGGAUACCAGUCAUAAGUCUCUUUCUUCUUGGCCAAGGGCUGCUCGCGGAACAGGCUCACCACUUUCAUGGACUUUGAGUCAGUAGACCUGGCCACUUCACCAAAGAUCCGCAACAGAGGAUUGAGCAUCA
# B3: chr8:95500983:95500984:-_ENSG00000164944_ENST00000437199|hu_hu|hu_hu_hu_mus_True|28_98 (ssRNA)
# RNA: GGGAGUUCUACAGUCCGACGAUCAGAACACAUCUAUUCGUGUAAAGACCGUACAUGACGGCCUCUACCACUGCCUCCACUAACAAACUUUCCUCUCGAGCCUCCACCUGCCGCUAUUGUACUAGCCCAGGACGGUCCCAGGCCCAACAGAGGAUUGAGCAUCA
# B4: chr11:21040623:21040624:+_ENSMUSG00000020134_ENSMUST00000093290|mus_mus|FALSE|FALSE (ssRNA)
# RNA: GGGAGUUCUACAGUCCGACGAUCAAUGUGCACGGUGCUAGGCUUCACCCCAUUUGCCUUAGGUCUUUUAAACAAAGCAAACCUACUUUUCCUCCUUCCUCUAUCACCGUUUGGGAGAGAUCCAUUAUAUCCUAAGACAAUGAGCAACAGAGGAUUGAGCAUCA
# B5: chr12:73312838:73312839:-_ENSMUSG00000021087_ENSMUST00000021497|mus_mus|motif|central (ssRNA)
# RNA: GGGAGUUCUACAGUCCGACGAUCUCAGUAUCAAGUACAUAAGUGCAAAUAUCCAGAGUCUGUGAUUGAGUCCAUUAGGAACGGCAGAGGAAGUAAUACAAAUUGUAAUAAAGUCAACAUGCUGGCACCUUUAGUUACCAUACACAACAGAGGAUUGAGCAUCA
# B6: chr6:38652254:38652255:-_ENSG00000124767_ENST00000373365|hu_hu|hu_hu_hu_mus_False|1_98 (ssRNA)
# RNA: GGGAGUUCUACAGUCCGACGAUCCGAGAACUUCAUAAUGGGAAAAUCAAGCUUCUGCAGGAGGGUCAGUCCAAGAACCCUCGUAUAAAAAUCCAGGGACUUCUUAGGAUCCUUAAUUCUUAGCAUCGUUUGCUGCAAUAGAAACAACAGAGGAUUGAGCAUCA
# B7: chr12:48362563:48362564:+_ENSG00000134291_ENST00000256686|hu_hu|hu_hu_hu_mus_False|38_108 (ssRNA)
# RNA: GGGAGUUCUACAGUCCGACGAUCUCCGAAGGGUGAAUCGAUAGACCCUUGCGGGGGAAACUGUAAUCACUUUGUAUGGGGAAGGAAAAGAAACGCCAACACACUUUCAAAAAGCGGGGGUGGGGUGAGGCGGGAGGGGGAGGUCAACAGAGGAUUGAGCAUCA
# B8: chr12:82822756:82822757:-_ENSMUSG00000042724_ENSMUST00000035987|mus_mus|motif|central (ssRNA)
# RNA: GGGAGUUCUACAGUCCGACGAUCGGCUGAGGAGGAGAGGCAGUAGACGGAUUUGGCUGAAUGACUCUGUAGUGUCACCCGGAAAGGAAAGGAAGACCGGAGGGUGGGGACAUAUGUGCACACCCCUCUCUAUACAGUCAGAGCCAACAGAGGAUUGAGCAUCA
# B9: 33283916_33284036_869_CDS_ENSG00000236104_ENST00000431845|human|control|control (ssRNA)
# RNA: GGGAGUUCUACAGUCCGACGAUCCAGCAGCAGCUUUCCAGAUGUGGCCCCUCCACUGCCAACGACAGGGGCUGGGAAUACAGGGCCACCUCCUCGACGCUCCCCACUGCCCACUGCAGAAGCUGCAAAUGCCUCUUGGGAGGACAACAGAGGAUUGAGCAUCA
# B10: chr9:119834795:119834796:+_ENSMUSG00000032512_ENSMUST00000036561|mus_hu|FALSE|FALSE (ssRNA)
# RNA: GGGAGUUCUACAGUCCGACGAUCAUGUAUACUUCCAGGAUAUGAAUAUCAAAUUAACUCACUAUGAUCUCCCUUUAUUCUGACACCAUAAAUUUUAGGUAACAUUUGAAUGAAACUGAAAUUUCAUCAUGGUCUUAAAUUUUGCAACAGAGGAUUGAGCAUCA
# B11: chr3:9412954:9412955:+_ENSG00000134077_ENST00000452837|hu_mus|hu_hu_hu_mus_False|38_58 (ssRNA)
# RNA: GGGAGUUCUACAGUCCGACGAUCGGUUGAUAUCUCUUCUUUGAUGGCUGGAUUUUCAUAAUAGUCCAAGAUAUGUGAAUCUAAAGCGCUGCUGGCAAACUCUUUUUUACCAUCUUUCUCAUCUGCUUUGUCUCCUUGUCCACACAACAGAGGAUUGAGCAUCA
# B12: chr1:166823625:166823626:+_ENSG00000143157_ENST00000367875|hu_hu|motif|central (ssRNA)
# RNA: GGGAGUUCUACAGUCCGACGAUCUAUUGUUGGGGUCAGUUCCUAUCUACUAGGGAGUACAACUAUAUCUCAAUAUGUGCGGUAGUAAUUCUAGGGUAACAGCCAUUCUGCAAAAUAGUUGUACUGGGGCUCUGUUAGGCAUAGCAACAGAGGAUUGAGCAUCA
# B13: 35660675_35660795_482_CDS_ENSG00000100281_ENST00000216106|human|control|control (ssRNA)
# RNA: GGGAGUUCUACAGUCCGACGAUCUGAAGAGCCAGAGGAUUUCUCCCCAGUCUUUUUGGAGGGCUUGGAGCCUGCUGCCAGUGGGGAAGUGAUAGCUUUCAACAGGUCCAUAGCUGUAUCAGUAGACUGUGGGCUGGACUUUUUCAACAGAGGAUUGAGCAUCA
# B14: chr2:158287933:158287934:+_ENSMUSG00000027652_ENSMUST00000141497|mus_mus|FALSE|FALSE (ssRNA)
# RNA: GGGAGUUCUACAGUCCGACGAUCAAGCGGUUGCUCCAGCAUUGCCAGGAUGACACUGUUAUCCAAAACAAAGUACCGGAAACUAUGCUUGUUUAUGGUUGGCAGCCUGGAGUAUUUGAUCAGAGUGGUCUCAUUCACCAGACUCAACAGAGGAUUGAGCAUCA
# B15: chr15:52844276:52844277:-_ENSG00000128989_ENST00000249822|hu_hu|FALSE|FALSE (ssRNA)
# RNA: GGGAGUUCUACAGUCCGACGAUCAUCCGGAGCUGCAGUAGGAAGUUGCUUGUUCUUCAUUUUUGCUUUAGCCAUGUUGUAAUCCCCAGAAUCAAAAUAUUUUUGCCCUUUCUGCAACCGUUUCCUUAAGAAAUCUGAACCUCCCAACAGAGGAUUGAGCAUCA
# B16: 30009953_30010818_6256_CDS_ENSMUSG00000020315_ENSMUST00000011877|mouse|control|control (ssRNA)
# RNA: GGGAGUUCUACAGUCCGACGAUCCUGUCUGCGCACUUCCAGUAGCUCCAACGUUGUCAGCCUUUCCAGAGCAGAGAAUCUCUCAUCCCAGGUCGCUGCAGACUUUUCAAACGCCUCAUGGCGCUUAAUAAGCUUCUCCACUUCCAACAGAGGAUUGAGCAUCA
# B17: chr17:66526506:66526507:+_ENSG00000108946_ENST00000358598|hu_mus|FALSE|FALSE (ssRNA)
# RNA: GGGAGUUCUACAGUCCGACGAUCGUACUGCUGGAUGUUCCGCUUGAGGAUGUCUGAGCACGGGCCAAGGACGCGUUCAAACCGAGGCCGGUCCAACUUAACGCACUUCAAAGGGCCCCGGGCAACCACAGUGGCAGCCCGAGGCAACAGAGGAUUGAGCAUCA
# B18: chr5:136384420:136384421:-_ENSMUSG00000051391_ENSMUST00000055808|mus_mus|FALSE|FALSE (ssRNA)
# RNA: GGGAGUUCUACAGUCCGACGAUCUACGACGGCUACAUAAUGACUCACAUUCAUGAAUAUUCCAUCACUGAGGAAACUGCUAAGAAUGGUCCGUGUGCGAAAUAAUUCCUUAGCGAAACACGGAGUUGGGGGGGAAAAAAUCACCAACAGAGGAUUGAGCAUCA
# B19: chr6:38652254:38652255:-_ENSG00000124767_ENST00000373365|hu_hu|hu_hu_hu_mus_False|1_1 (ssRNA)
# RNA: B6 RNA with A37G, U38C, G39A, A42G, A45G
# B20: chr5:6374476:6374477:-_ENSG00000133398_ENST00000255764|hu_hu|motif|central (ssRNA)
# RNA: GGGAGUUCUACAGUCCGACGAUCCAGGCUUUUAAAUUUCUUCAUGGUGUCGAUCUUGCCUUUAACUUGCUCAUUUUUAGCGGGAGCCCUCUCCAGGCACUCUUUGGUGUAGAGCUGGGGAUUUCGACCUUGAUCUAUAUAUUCCAACAGAGGAUUGAGCAUCA
# B21: chr1:109605286:109605287:-_ENSG00000197780_ENST00000461096|hu_mus|hu_hu_hu_mus_True|28_28 (ssRNA)
# RNA: GGGAGUUCUACAGUCCGACGAUCAAGUUUCAGAGUAACAUUCAGUAACCUCUUUAAAUGCAAUUAUCCUUAUUAUAAGCUAAGCAGAAUAAUAAUUUAAUACCGUAAGUAAAUACAACACAAAGCCUGAACCGCGAAAAUGGUCAACAGAGGAUUGAGCAUCA
# B22: chr22:19452774:19452775:-_ENSG00000070010_ENST00000399523|hu_hu|hu_hu_hu_mus_False|68_68 (ssRNA)
# RNA: GGGAGUUCUACAGUCCGACGAUCCUUCUCAUUGUAGUUGAUAGCAAUCACAUCUCCAGUCGUCAGACAGGCAAAGUUUCUCAAUGCAUUUUCUAAUACCGCUUUAGGGUUGGUAAUAUCCAGGAAGUCUGGGCUCUGAGGCUGCAACAGAGGAUUGAGCAUCA
# Biological target: T1, UNK ZnF1-3
# Experiment: nsRBNS (natural sequence RNA bind-n-seq); RBNS binding buffer (assumed for nsRBNS): 25 mM Tris pH 7.5, 150 mM KCl, 3 mM MgCl2, 0.01% Triton X-100, 500 ug/ml BSA, 20 U/ml SUPERase-In, 4 C; UNK is unkempt and MSI1 is Musashi-1; names of the RNAs are library labels; protein concentration not given here; high values mean tight binding
row,Binder,binding signal [enrichment R]
1,B1,1.21
2,B2,0.499
3,B3,1.02
4,B4,0.714
5,B5,1.8
6,B6,1.04
7,B7,2.52
8,B8,2.22
9,B9,0.638
10,B10,0.988
11,B11,0.381
12,B12,1.13
13,B13,1.39
14,B14,0.379
15,B15,1.05
16,B16,0.814
17,B17,1.12
18,B18,1.5
19,B19,0.767
20,B20,0.609
21,B21,0.963
22,B22,0.958
